ChEMBL document CHEMBL4888484, “Replenishing the malaria drug discovery pipeline: Screening and hit evaluation of the MMV Hit Generation Library 1 (HGL1) against asexual blood stage Plasmodium falciparum ,using a nano luciferase reporter read-out” (2022)
“And” between values parts separate entries of the source, which are not always exact repeats. Equal values may be shown once. Screen size: about 150,000 compounds; about 540 (0.36%) showed an effect of 50% or more. The list shows a part of the results.

System: Plasmodium falciparum
Assay: Primary screen in NF54 nanoGlo assay, in single point, at 2uM, 72h; a lower Z score goes with more inhibition
Type: functional, Erythrocyte
Conditions: timepoint 72 hour

O=C(c1ccc2nc(N3C(=O)CCC3=O)sc2c1)N(CCO)c1ccccc1
% Inhibition: -31% | Z score: 4.21

N#CCN1CCC(Nc2ccc(Cl)c(C#N)n2)CC1
% Inhibition: 17% | Z score: -2.18

C[C@H](Oc1cccc(Cl)c1)c1nnc2n1CCOC2
% Inhibition: -11% | Z score: 1.74

Cc1cccc(NC(=O)CN(C)C[C@@H](C)CC(C)C)c1C
% Inhibition: 5% | Z score: -0.63

Cc1ccc(S(=O)(=O)Cc2nc(O)c3ccccc3n2)cc1
% Inhibition (2 µM): -9% and -1%

O=C(NC1CC1)N1CCN(S(=O)(=O)c2ccccc2)CC1
% Inhibition: 2% | Z score: -0.21

CC(C)CS(=O)(=O)C1CN(C(=O)CCc2cccc(Oc3ccc(F)cc3)c2)C1
% Inhibition: -23% | Z score: 2.94

Cn1cc(S(=O)(=O)NC[C@]2(O)CCCc3ccccc32)cn1
% Inhibition: -6% | Z score: 1.13

CCNC(=O)[C@@H]1CC[C@](C)(C(=O)NCc2ccc(O)cc2)C1(C)C
% Inhibition: -9% | Z score: 0.83

OC1CCN(c2cc(N3CCC(O)CC3)nc(-c3ccccc3)n2)CC1
% Inhibition: -10% | Z score: 1.2

COc1ccc(Cl)c(S(=O)(=O)N2CC3(CCC3(F)F)C2)c1
% Inhibition: -10% | Z score: 1.34

O=C(c1cc(Br)cc2[nH]cnc12)N1CCc2cnccc21
% Inhibition: 0% | Z score: 0.05

Cc1cc(NC(=O)NCC2(S(C)(=O)=O)CC2)cc(C)c1Cl
% Inhibition: 6% | Z score: -0.91

O=C(NCc1ccccc1)C1CCN(S(=O)(=O)c2ccc3[nH]ccc3c2)CC1
% Inhibition: -9% | Z score: 1.56

OC[C@H]1C=C[C@@H](Nc2nccc(C(F)(F)F)n2)C1
% Inhibition: -9% | Z score: 1.44

CC1CC(O)CCN1CC(=O)Nc1cc(C2CC2)nn1-c1ccccc1 (configuration not stated)
% Inhibition: -5% | Z score: 0.59

CN1CCN(C(=O)CC2CC3CCC2C3)CCC1=O (configuration not stated)
% Inhibition: 4% | Z score: -0.43

CCc1nc(C2CCCN2C2C=CCCC2)no1 (configuration not stated)
% Inhibition: -10% | Z score: 1.73

Cc1ccc(C(=O)N2C[C@H]3CCC(=O)c4cccc2c43)nc1C
% Inhibition: 3% | Z score: -0.68

CCc1c(C)c(C(=O)N2CCN(c3ccccc3C)CC2)n(Cc2ccccc2C)c1C
% Inhibition: -13% | Z score: 1.51

CO[C@H]1CCC[C@@H]1Nc1nc2ccccc2o1
% Inhibition: 0% | Z score: -0.05

O=C(N[C@@H]1CN(Cc2cc(Cl)ccc2F)C[C@H]1CO)C1CCC1
% Inhibition: -5% | Z score: 0.69

c1ccc(OCc2nc3ccccc3n2CC2CCCCC2)cc1
% Inhibition: -6% | Z score: 0.86

Cc1nn(C)cc1CN1CCN(S(=O)(=O)c2ccc(C(N)=O)o2)CC1
% Inhibition: -1% | Z score: 0.21

O=C(CCS(=O)(=O)c1ccc(Cl)cc1)Nc1nc(-c2nc3ccccc3s2)cs1
% Inhibition: -11% | Z score: 1.97

Cc1nc(Cn2nnc3ccccc3c2=O)n(-c2ccc(Cl)cc2)n1
% Inhibition: 19% | Z score: -2.37

Clc1cccc(NCn2cnc3ccccc32)c1
% Inhibition: -16% | Z score: 2.12

O=C(NC[C@H]1CCCCO1)c1cccc(CN2CCCCCC2)c1
% Inhibition: -7% | Z score: 0.77

CC(=O)NCc1cc2n(n1)CCN(c1ccc(-c3ccccc3)nn1)C2
% Inhibition: -10% | Z score: 1.4

O=C1CCNCCC[C@H](c2nc(-c3ccccc3)no2)CCN1
% Inhibition: 4% | Z score: -0.76

CC(C)C(OCC1CCCO1)C(=O)NC(C)C1CC2CCC1C2 (configuration not stated)
% Inhibition: 0% | Z score: 0.03

C[C@H](NC(=O)NCc1ncnn1C(C)(C)C)C1CC1
% Inhibition: -5% | Z score: 0.69

COC(=O)C(C)(C)CNC1CCCCC1S(C)(=O)=O (configuration not stated)
% Inhibition: 4% | Z score: -0.4

CN1C[C@H]2CN(C(=O)CCc3conc3-c3ccccc3)C[C@@]2(C(=O)N2CCCC2)C1
% Inhibition: -2% | Z score: 0.24

COCCN1CC(=O)N[C@H]2CN(CC3CCC3)C[C@@H]2OCc2cccc(c2)Oc2cncc(c2)C1=O
% Inhibition: 1% | Z score: -0.19

CC(C)OCCS(=O)(=O)N1CCN(C2CCC2)CC1
% Inhibition: -3% | Z score: 0.3

NC(=O)CN1C(=O)[C@]2(CCN(C(=O)CCc3ccncc3)C2)c2ccccc21
% Inhibition: -5% | Z score: 0.85

Cc1ccc(OC(C)CNC(=O)CCC2CCCO2)cc1 (configuration not stated)
% Inhibition: -8% | Z score: 1.54

CC(C)c1nc(N2CCCC2=O)sc1C(=O)NCc1ccc2c(c1)OCO2
% Inhibition: -13% | Z score: 1.18

CCCOc1ccc(C2C3C(=O)N(c4cccc5ccccc45)C(=O)C3ON2c2ccccc2)cc1OCC (configuration not stated)
% Inhibition: 3% | Z score: -0.28

CC[C@H](NC(=O)CN1CCS(=O)(=O)CC1)c1c(C)nn(C)c1C
% Inhibition: -2% | Z score: 0.28

CC1CC2CCCCC2N1C(=O)C1CC=CC1 (configuration not stated)
% Inhibition: -15% | Z score: 2.13

Cc1cc(N2CC[C@H](N3CCOCC3)[C@H](CCC(=O)O)C2)nc(C)c1C#N
% Inhibition: -11% | Z score: 1.95

Cc1ccc(-c2ocnc2C(=O)Nc2ccc(Cl)cc2C)o1
% Inhibition: 6% | Z score: -0.58

COc1ccccc1-c1nnc(CN2CCC[C@H]2c2cnn(C)c2)o1
% Inhibition: -6% | Z score: 0.84

O=C(Nc1cccc(-c2ccsc2)c1)N[C@H]1CCOC1
% Inhibition: -6% | Z score: 0.7

Cc1cccc(S(=O)(=O)Nc2cccn3nc(C4CC4)nc23)c1
% Inhibition: -3% | Z score: 0.34

CC1=NN(c2ccc(C)cc2)C(=O)C12Cc1cc(C(F)(F)F)ccc1N1CCN(c3ncccn3)CC12 (configuration not stated)
% Inhibition: -43% | Z score: 5.08

Cc1cc(=O)n2ccn([C@H]3CCC(C)(C)C3)c2n1
% Inhibition: -11% | Z score: 1.25

Cc1ccccc1CC(=O)Nc1ccc(-c2nc3ncccc3o2)cc1
% Inhibition: 35% | Z score: -4.66

CN(C)S(=O)(=O)CCn1cc(-c2ccc3c(c2)CCC3)nn1
% Inhibition: 5% | Z score: -0.63

Cn1ncc2c1CN(c1ncc(C(F)(F)F)cc1Cl)C2
% Inhibition: 9% | Z score: -1.27

O=C(CN1CCCCC1=O)Nc1ccc(Cl)c(OC(F)F)c1
% Inhibition: -8% | Z score: 1.31

COC(=O)CCN1CCN(Cc2cn(C)nc2C)[C@@H](C)C1
% Inhibition: -9% | Z score: 1.1
